Test results taken from ChEMBL document CHEMBL1157539, “Thousands of chemical starting points for antimalarial lead identification” (Nature, 2010).
In all, about 13,000 compounds were measured (“IFI”: median about 4, highest 2% from about 17 on). Some of the results follow.

Experiment: GSK_TCMDC: Inhibition Frequency Index (IFI). The number of non-kinase HTS assays where a compound showed > 50 % inhibition, expressed as a percentage of the number of such assays in which the compound was tested (-0 is zero)
Type: functional

Row | Structure (SMILES) | IFI [%]
1 | FC(F)(F)c1ccc(-c2cncc(-c3ccc(C(F)(F)F)cc3)n2)cc1 | -0
2 | CN(CCCNCc1ccc2ccccc2c1)CCCNCc1ccc2ccccc2c1 | 7.91
3 | Cc1ccc(Cl)cc1NC(=O)c1c(-c2ccccc2Cl)noc1C | 1.48
4 | NS(=O)(=O)c1cccc(-c2ccc3ncc(N4CCOCC4)nc3c2)c1 | 3.7
5 | O=C(/C=C/c1ccc(Cl)c(Cl)c1)NCCCCCN1CCC(NC(=O)NCCc2ccccc2)CC1 | 3.36
6 | Cc1cc(N(C)C)nc(Nc2ccc(NC(=O)c3ccc(F)cc3)cc2)n1 | 5.41
7 | CCN(CC)CCN(Cc1ccc(-c2ccc(C(F)(F)F)cc2)cc1)C(=O)Cn1c(CCc2cccc(F)c2F)nc(=O)c2ccc(C(F)(F)F)cc21 | 4.55
8 | COc1ccc2ncc(F)c(CCN3CC[C@H](NC(=O)c4ccc5c(n4)NC(=O)CS5)[C@H](O)C3)c2n1 | 2.88
9 | C=CCc1cc(C)ccc1OCCCON1C(N)=NC(N)=NC1(C)C | 5.56
10 | CS(=O)(=O)CCNCc1cccc(-c2ccc3c(Nc4cc(O)c(Cl)cc4F)ccnc3c2)c1 | 3.76
11 | COc1cc2nc(N3CCC(C(N)=O)CC3)nc(NCc3ccccc3)c2cc1OC | 1.48
12 | Cc1ccccc1C1CCN(C2CCC(NC(=O)/C=C/c3ccc(OC(F)(F)F)cc3)CC2)CC1 (stereo not given) | 14.8
13 | Cc1cccc2nc(-c3cccc(-c4ccc(NC(=O)CN5CCOCC5)cc4)c3)[nH]c12 | 0.91
14 | N#Cc1cc([N+](=O)[O-])ccc1-n1nc(-c2cccc(Cl)c2)n(CC2CCCO2)c1=S (stereo not given) | 0.68
15 | CN1CCC[C@H]1COc1ccc(CN2CC[C@H](NC(=O)c3ccc(Cl)c(Cl)c3)C2)cc1Br | 6.67
16 | CCOC(=O)CN1Cc2cc(NCc3ccc4ccc5nc(C)[nH]c(=O)c5c4c3)ccc2C1=O | 2.26
17 | CCN(CC)CCN(Cc1ccc(-c2ccc(C(F)(F)F)cc2)cc1)C(=O)c1c[nH]c2ccc(Br)cc12 | 10.9
18 | C[C@@H]([C@@H](CCCCc1ccccc1)C(=O)N[C@H](C(=O)Nc1cccnc1)C(C)(C)C)N(O)C=O | 2.22
19 | O=c1c2ccccc2[nH]c2cc(Cl)ccc12 | 1.6
20 | c1cc(CN2CCN(CCN3CCOCC3)CC2)cc(-c2ccc(-c3nc4ccccc4[nH]3)cc2)c1 | 2.82
21 | Cc1cccc(Cl)c1Nc1nnc(-c2cccc(C(=O)NC[C@@H]3CC[C@H]4C[C@@H]3C4(C)C)c2)o1 | 2.96
22 | COc1cccc(Cc2cnc3nc(N)nc(N)c3c2C)c1 | 1.46
23 | Cc1nc(C)c(-c2ccc(Cl)cc2)c(O)c1I | 1.54
24 | CCN(CC)CCN(CCN(CC)CC)c1ccc(-c2nc3cc(Cl)c(Cl)cc3[nH]2)cc1 | -0
25 | CCCOc1ccccc1C(=O)Nc1nonc1-c1ccc(OCC)c(OCC)c1 | 6.82
